Reference: PubChem BioAssay (Tox21)
Where “and” joins values, the source holds several entries; their conditions need not be identical. Equal entries are not always repeated. Inconclusive means that the source gave no clear call. Such entries were picked first, then a sample of the others. Potencies of inconclusive entries are doubtful fits and often do not repeat. The source holds several records for some structures; these can differ, active in one and inactive in another. Calls of active or inactive are those of the source. Unless noted, the call rests on the fitted dose curve.

Test system: not listed separately
Experiment: qHTS assay to identify small molecule antagonists of the sonic hedgehog signaling (Shh) pathway - cell viability counter screen (AID 1259367; active means well fitted cell-killing curve with a large enough effect in the repeat runs; inconclusive means weak or mixed curves, or effect the other way; inactive means no such curve, though single readings can be large or run the other way; further: nearly all actives have a fitted effect of over 55% in size)
Conditions: NIH/3T3 Gli1-Luc viability, CellTiter-Fluor, 24 h; series mostly up to 92.4 µM
Outline: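 Cells: 3T3 Gli1-Luc, 2,000/well, 4 hr pre-incubation. Compounds in DMSO, then conditioned medium. Incubation 24 hr, 37C, 5% CO2. CellTiter-Fluor at 23 hr, 1 hr, fluorescence.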
Potency means the concentration at half of the fitted maximal effect; tags describe the fitted curve by direction and shape or compound fluorescence and quenching.

| Compound | Potency |
| --- | --- |
| COc1cc2ncnc(Nc3ccc(F)c(Cl)c3)c2cc1OCCCN1CCOCC1 | inconclusive: 13.3 µM [cytotoxic, partial curve] |
| CCCCOC(=O)c1ccc(O)cc1 | inconclusive: 61.9 µM [cytotoxic, partial curve, poor fit] |
| CN(C)CC/C=C1\c2ccccc2Sc2ccc(Cl)cc21 | inconclusive: 29.8 µM [cytotoxic, partial curve, poor fit] |
| CCCCCc1ccc(O)cc1 | inconclusive: 68.6 µM [cytotoxic, single point] |
| COC(=O)C1=C(C)NC(C)=C(C(=O)OCC(C)=O)C1c1ccccc1[N+](=O)[O-] (stereo not given) | inconclusive: 29.8 µM [cytotoxic, single point] |
| C=C1CC[C@H](O)CC1=C/C=C1\CCC[C@]2(C)[C@@H]([C@H](C)/C=C/[C@H](C)C(C)C)CC[C@@H]12 | inconclusive: 60.6 µM [cytotoxic, partial curve, poor fit] and inconclusive: 48.6 µM [cytotoxic, partial curve] |
| Nc1cccc2c(N)cccc12 | inconclusive: 2.43 µM [cytotoxic, full curve, poor fit] |
| O[C@@H](CNC[C@H](O)[C@H]1CCc2cc(F)ccc2O1)[C@@H]1CCc2cc(F)ccc2O1 | active: 29.8 µM |

Test system: not listed separately
Experiment: qHTS assay to identify small molecule antagonists of the sonic hedgehog signaling (Shh) pathway (AID 1259369); further: nearly all actives have a fitted effect of over 45% in size
Conditions: NIH/3T3 Gli1-Luc reporter, Shh antagonist, luminescence 24 h; series mostly up to 92.4 µM
Outline: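 3T3Gli1-Luc, conditioned-medium-stimulated, 24hr cpd, 37C/5% CO2; Gli1-driven firefly Luc luminescence after 30min RT with luciferase reagent. Cells plated 4hr before cpd.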

| Compound | Potency |
| --- | --- |
| COC(=O)C1=C(C)NC(C)=C(C(=O)OC(C)(C)CN(C)CCC(c2ccccc2)c2ccccc2)C1c1cccc([N+](=O)[O-])c1 (stereo not given) | inconclusive: 33.5 µM [inhibitor] |
| CCCCCCCCC | inconclusive: 0.243 µM [inhibitor, single point] |
| Nc1cc(Cl)c(N)c(Cl)c1 | inconclusive: 15.2 µM [inhibitor, full curve, poor fit] and inconclusive: 2.17 µM [inhibitor, full curve] |
| O=S1(=O)OC(c2ccc(O)cc2)(c2ccc(O)cc2)c2ccccc21 | active: 27.3 µM |
| CC/C=C\CCCCCO | inactive |
| CCCCOC(=O)c1ccc(O)cc1 | inconclusive: 55.1 µM [inhibitor, single point] |
| O=C(OCCOCCO)c1ccccc1Nc1cccc(C(F)(F)F)c1 | inconclusive: 29.8 µM [inhibitor, single point] |
| CN(C)CC/C=C1\c2ccccc2Sc2ccc(Cl)cc21 | inconclusive: 21.1 µM [inhibitor, partial curve, poor fit] |
| CC(C)n1c(/C=C/[C@@H](O)C[C@@H](O)CC(=O)O)c(-c2ccc(F)cc2)c2ccccc21 | inconclusive: 3.06 µM [inhibitor, full curve] and inconclusive: 10.6 µM [inhibitor, full curve, poor fit] |
| Oc1ccc2c(c1)-c1ccccc1C2 | active: 13.7 µM |
| CO[C@@H]1[C@@H](OC)[C@H](C)[C@@](O)(CC(=O)O)O[C@H]1[C@H](C)[C@H]1O[C@@]2(CC[C@@](C)([C@H]3CC[C@@](C)([C@@H]4O[C@@H]([C@H]5O[C@](C)(O)[C@H](C)C[C@@H]5C)C[C@@H]4OC4C[C@H](OC)[C@@H](OC)[C@H](C)O4)O3)O2)C[C@H](O)[C@H]1C (stereo not given in full) | active: 0.211 µM |
| CCCCCc1ccc(O)cc1 | inconclusive: 77 µM [inhibitor, single point] |
| CC1=Nc2ccc3ccccc3c2C1(C)C | active: 30.6 µM |
| NC(=O)C(c1ccccc1)(c1ccccc1)[C@@H]1CCN(CCc2ccc3c(c2)CCO3)C1 | inconclusive: 1.19 µM [inhibitor, full curve, poor fit] |
| COC(=O)C1=C(C)NC(C)=C(C(=O)OCC(C)=O)C1c1ccccc1[N+](=O)[O-] (stereo not given) | inconclusive: 2.66 µM [inhibitor, full curve, poor fit] |
| Cc1nccn1-c1ccc(Sc2cccc(C3(C(N)=O)CCOCC3)c2)cc1 | active: 3.06 µM |
| C=C1CC[C@H](O)CC1=C/C=C1\CCC[C@]2(C)[C@@H]([C@H](C)/C=C/[C@H](C)C(C)C)CC[C@@H]12 | active: 4.81 µM and active: 17.2 µM |
| Nc1cccc2c(N)cccc12 | active: 5.45 µM |

Target: Estrogen receptor beta (Homo sapiens) (UniProt Q92731)
UniProt Q92731, sequence (Q92731 whole entry, looked up): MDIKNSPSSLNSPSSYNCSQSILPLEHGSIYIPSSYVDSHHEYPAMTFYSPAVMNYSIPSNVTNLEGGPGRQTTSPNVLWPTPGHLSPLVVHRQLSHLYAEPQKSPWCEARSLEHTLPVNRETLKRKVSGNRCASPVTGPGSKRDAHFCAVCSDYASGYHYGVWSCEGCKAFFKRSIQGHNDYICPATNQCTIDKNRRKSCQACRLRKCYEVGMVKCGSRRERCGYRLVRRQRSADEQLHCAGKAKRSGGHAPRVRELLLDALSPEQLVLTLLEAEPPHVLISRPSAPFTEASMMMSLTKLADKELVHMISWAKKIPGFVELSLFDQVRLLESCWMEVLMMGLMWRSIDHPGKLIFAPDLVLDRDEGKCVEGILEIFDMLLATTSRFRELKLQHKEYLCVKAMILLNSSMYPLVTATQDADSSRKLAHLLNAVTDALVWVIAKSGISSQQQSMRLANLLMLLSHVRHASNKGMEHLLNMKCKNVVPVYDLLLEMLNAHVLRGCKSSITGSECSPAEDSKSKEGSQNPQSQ
Experiment: qHTS assay to identify small molecule agonists of the estrogen receptor beta (ER-beta) signaling pathway (AID 1259377; active means well fitted activation curve with a large enough effect in the signal ratio in the repeat runs, not every such curve was filed as active; inconclusive means weak or mixed curves, or effect the other way; the % refers to the signal ratio; on activation: on the % scale 0 is the no-effect control and ±100 the full control effect)
Conditions: ER-beta-UAS-bla HEK293T, beta-lactamase FRET ratio, 16 h; activation: at 92.4 µM (top of the series) unless noted
Outline: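 Beta-lactamase reporter readout: fluorescence of LiveBLAzer B/G FRET substrate after 2 h at room temperature, following 16 h compound treatment of ER-beta-UAS-bla HEK293T cells at 37C in 2% charcoal-stripped FBS medium.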

| Compound | Potency | activation |
| --- | --- | --- |
| COc1cc2ncnc(Nc3ccc(F)c(Cl)c3)c2cc1OCCCN1CCOCC1 | inconclusive: 7.5 µM [rising, partial curve] | – |
| O=S1(=O)OC(c2ccc(O)cc2)(c2ccc(O)cc2)c2ccccc21 | – | inconclusive: 17.7% and inconclusive: 6.54% |
| CCCCOC(=O)c1ccc(O)cc1 | inconclusive: 13.3 µM [fluorescent, single point] | inconclusive: 0.668% |
| CC1C2CC(CC2C2CCCC(O)C2)C1(C)C (stereo not given) | inconclusive: 77 µM [falling, single point] | – |
| O=C1c2ccccc2C(=O)C1c1nc2ccccc2c(Br)c1O | inconclusive: 54.5 µM [rising, partial curve, poor fit] | – |
| CN(C)CC/C=C1\c2ccccc2Sc2ccc(Cl)cc21 | inconclusive: 29.8 µM [rising, partial curve] | – |
| COc1ccc(-c2coc3cc(O)cc(O)c3c2=O)cc1 | inconclusive: 4.9 µM [activator, partial curve] and inconclusive: 4.33 µM [activator, full curve] | – |
| Oc1ccc2c(c1)-c1ccccc1C2 | inconclusive: 13.7 µM [activator, full curve] | – |
| CCCCCc1ccc(O)cc1 | – | inconclusive: 8.25% |
| CC1=Nc2ccc3ccccc3c2C1(C)C | inconclusive: 43.3 µM [rising, partial curve] | – |
| c1cc(N(CC2CO2)CC2CO2)ccc1Cc1ccc(N(CC2CO2)CC2CO2)cc1 (stereo not given) | inconclusive: 21.7 µM | – |
| Nc1cccc2c(N)cccc12 | inconclusive: 6.86 µM [fluorescent, full curve] | – |
| O[C@@H](CNC[C@H](O)[C@H]1CCc2cc(F)ccc2O1)[C@@H]1CCc2cc(F)ccc2O1 | inactive | – |
